Experimental data as given in PubChem BioAssay AID1745853 (National Center for Advancing Translational Sciences (NCATS), 2022).
The other results are listed elsewhere or left out. The main result of the screen is listed elsewhere. These columns were measured beside it and carry no call.

Experiments:
Test in all cases: Primary Screen for Target Class Profiling of Small Molecule Inhibitors of Methyltransferases
[1] = target: Glycine N-methyltransferase (Homo sapiens) (UniProt Q14749); conditions: purified enzyme, MTase-Glo SAH luminescence; measured here: GNMT inhibition; at 40 µM; stronger effect = lower value
In short: (§1)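 Each enzyme was reacted with SAM and its substrate, with compounds tested once at 40 uM; SAH formed was read by MTase-Glo luminescence.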

[2] = target: Guanidinoacetate N-methyltransferase (Homo sapiens) (UniProt Q14353); conditions: purified enzyme, MTase-Glo SAH luminescence; measured here: GAMT inhibition; at 40 µM; stronger effect = lower value
In short: as §1

[3] = target: Histamine N-methyltransferase (Homo sapiens) (UniProt P50135); conditions: purified enzyme, MTase-Glo SAH luminescence; measured here: HNMT inhibition; at 40 µM; stronger effect = lower value
In short: as §1

[4] = target: Nicotinamide N-methyltransferase (Homo sapiens) (UniProt P40261); conditions: purified enzyme, MTase-Glo SAH luminescence; measured here: NNMT inhibition; at 40 µM; stronger effect = lower value
In short: as §1

[5] = target: Phenylethanolamine N-methyltransferase (Homo sapiens) (UniProt P11086); conditions: purified enzyme, MTase-Glo SAH luminescence; measured here: PNMT inhibition; at 40 µM; stronger effect = lower value
In short: as §1
% is set by controls: 0 for no effect and ±100 for the full control effect.

For `CC1(C)SC2C(NC(=O)[C@H](C(=O)O)c3ccsc3)C(=O)N2C1C(=O)O` (stereo not given in full), the activity change, negative = inhibition [1] was 1.53%, the activity change, negative = inhibition [2] was 8.39% and the activity change, negative = inhibition [3] was 4.66%. The activity change, negative = inhibition [4] was -7.86% and the activity change, negative = inhibition [5] was 0.767%.
`CCOC(=O)c1cc2n(n1)CC(C)(C(=O)NCCCOC)N(c1ccc(C)c(Cl)c1)C2=O` (stereo not given) was tested, and the activity change, negative = inhibition [1] was 5.88%, the activity change, negative = inhibition [2] was 0% and the activity change, negative = inhibition [3] was 11.2%. It also gave an activity change, negative = inhibition [4] of 5.46% and an activity change, negative = inhibition [5] of 5.9%.
Work on `Nc1nc(Cl)nc2c1ncn2[C@@H]1O[C@H](CO)[C@@H](O)[C@H]1O` yielded an activity change, negative = inhibition [1] of -6.86%, an activity change, negative = inhibition [2] of 0.413% and an activity change, negative = inhibition [3] of -4.02%. The activity change, negative = inhibition [4] was -9.54% and the activity change, negative = inhibition [5] was -0.604%.
In the case of `COc1ccccc1CNC(=O)C1c2c(n(C)c3ccccc23)SCC(=O)N1c1cccc(F)c1` (stereo not given), the activity change, negative = inhibition [1] is reported as 10%, the activity change, negative = inhibition [2] is reported as 5.53% and the activity change, negative = inhibition [3] is reported as 2.56%. For the same molecule, the activity change, negative = inhibition [4] was -3.48% and the activity change, negative = inhibition [5] was 5.63%.
`CCC(C)(C)C(=O)N1CCC(N2C(=O)CCC2C(=O)NC(C)C)CC1` (stereo not given) showed an activity change, negative = inhibition [1] of -5.02%, an activity change, negative = inhibition [2] of -6.44% and an activity change, negative = inhibition [3] of -1.16%. It also gave an activity change, negative = inhibition [4] of -9.61% and an activity change, negative = inhibition [5] of 1.56%.
With `Cc1noc(C)c1-c1cc(-c2cccc3cc[nH]c23)cn2cncc12` the activity change, negative = inhibition [1] was -21%, the activity change, negative = inhibition [2] was -13.9% and the activity change, negative = inhibition [3] was -17.9%. It also gave an activity change, negative = inhibition [4] of -30.2% and an activity change, negative = inhibition [5] of -4.26%.
`COc1ccc(-n2c(SCC#N)nc3sc4c(c3c2=O)CCCC4)cc1` was tested, and the activity change, negative = inhibition [1] was 7.13%, the activity change, negative = inhibition [2] was -2.15% and the activity change, negative = inhibition [3] was 9.45%. For the same molecule, the activity change, negative = inhibition [4] was -16.9% and the activity change, negative = inhibition [5] was -3.48%.
In the case of `Cc1oc(C(O)c2ccccc2)nc1C(=O)Nc1ccncc1` (stereo not given), the activity change, negative = inhibition [1] is reported as -4.75%, the activity change, negative = inhibition [2] is reported as -2.5% and the activity change, negative = inhibition [3] is reported as -4.21%. For the same molecule, the activity change, negative = inhibition [4] was -4.38% and the activity change, negative = inhibition [5] was -5.41%.
`C/C=C(\C)C(=O)OC1C=C(C)CC(OC(=O)c2ccc(O)cc2)C2C1(C)CCC2(O)C(C)C` (stereo not given) was tested, and the activity change, negative = inhibition [1] was 3.99%, the activity change, negative = inhibition [2] was 5.45% and the activity change, negative = inhibition [3] was 0.865%. For the same molecule, the activity change, negative = inhibition [4] was -14.6% and the activity change, negative = inhibition [5] was 2.61%.
With `CN1C(=O)c2cc(C(=O)NCCc3cccs3)nn2CC1(C)C(=O)NC1CCCC1` (stereo not given) the activity change, negative = inhibition [1] was -5.93%, the activity change, negative = inhibition [2] was -4.92% and the activity change, negative = inhibition [3] was -3.05%. For the same molecule, the activity change, negative = inhibition [4] was -4.76% and the activity change, negative = inhibition [5] was -4.78%.
`CN(C)c1cc(N2CCCC(NS(C)(=O)=O)C2)ncn1` (stereo not given) was tested, and the activity change, negative = inhibition [1] was -4.04%, the activity change, negative = inhibition [2] was -9.69% and the activity change, negative = inhibition [3] was -3%. For the same molecule, the activity change, negative = inhibition [4] was -11.9% and the activity change, negative = inhibition [5] was -6.68%.
In the case of `O=c1[nH]c(C2CCN(Cc3ccc(-c4cccnc4)cc3)CC2)nc2ccc(F)cc12`, the activity change, negative = inhibition [1] is reported as -9.59%, the activity change, negative = inhibition [2] is reported as 1.54% and the activity change, negative = inhibition [3] is reported as -5.21%. It also gave an activity change, negative = inhibition [4] of 0.158% and an activity change, negative = inhibition [5] of -2.78%.
In the case of `O=C1OC(=O)C2C3CCC(O3)C12` (stereo not given), the activity change, negative = inhibition [1] is reported as 1.52%, the activity change, negative = inhibition [2] is reported as 12.6% and the activity change, negative = inhibition [3] is reported as 6.19%. The activity change, negative = inhibition [4] was -1.71% and the activity change, negative = inhibition [5] was 3.96%.
With `NC(=O)[C@H]1CCCCc2c1[nH]c1ccc(Cl)cc21` the activity change, negative = inhibition [1] was 6.38%, the activity change, negative = inhibition [2] was 6.06% and the activity change, negative = inhibition [3] was 7.92%. For the same molecule, the activity change, negative = inhibition [4] was -4.11% and the activity change, negative = inhibition [5] was 6.37%.
With `COC(=O)c1cc2n(n1)CC(C)(C(=O)NC1CCCCCC1)N(c1ccc(C)c(C)c1)C2=O` (stereo not given) the activity change, negative = inhibition [1] was 1.19%, the activity change, negative = inhibition [2] was 0% and the activity change, negative = inhibition [3] was -0.793%. It also gave an activity change, negative = inhibition [4] of 5.86% and an activity change, negative = inhibition [5] of 3.68%.
`O=C1c2cc3occc3n2CC(C(=O)NC2CCCCCCC2)(c2ccccc2)N1Cc1ccccc1` (stereo not given) gave an activity change, negative = inhibition [1] of 5.75%, an activity change, negative = inhibition [2] of 4.4% and an activity change, negative = inhibition [3] of 4.32%. The activity change, negative = inhibition [4] was -1.12% and the activity change, negative = inhibition [5] was -17.8%.
Work on `NC(=O)c1ccc(C(F)(F)F)nc1N1CCC(N2CCCC(O)C2)CC1` (stereo not given) yielded an activity change, negative = inhibition [1] of 0.106%, an activity change, negative = inhibition [2] of 0.551% and an activity change, negative = inhibition [3] of 0.874%. The activity change, negative = inhibition [4] was -1.67% and the activity change, negative = inhibition [5] was 0.703%.
Work on `CCc1ccccc1NC(=O)Cn1nc2n(C(C)C)c(=O)c3ccc(C(=O)NC4CCCC4)cc3n2c1=O` yielded an activity change, negative = inhibition [1] of 0.895%, an activity change, negative = inhibition [2] of 2.28% and an activity change, negative = inhibition [3] of -4.32%. For the same molecule, the activity change, negative = inhibition [4] was -0.712% and the activity change, negative = inhibition [5] was -5.61%.
